# This is one part of the list.
# What was measured:
# Assay in all cases: glycan array binding signal (z-score within array); higher = stronger binding
# Conditions in all cases: glycan notation: IUPAC condensed, linker removed
# Fuc(a1-2)Gal = target: Fuc(a1-2)Gal
# In short: (§1)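 Negative Z-scores can be read as non-binding. The Z-score is calculated within each array and then averaged across arrays of one protein sequence at different concentrations or buffers and across linkers. Arrays, 3228 in all, were curated from the Consortium for Functional Glycomics database and kept only where the protein sequence was available.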
# Fuc(a1-2)Gal(b1-3)GalNAc = target: Fuc(a1-2)Gal(b1-3)GalNAc
# In short: as §1
# [1] = target: Fuc(a1-2)Gal(b1-3)GalNAc(a1-3)[Fuc(a1-2)]Gal(b1-4)Glc
# In short: as §1
# [2] = target: Fuc(a1-2)Gal(b1-3)GalNAc(a1-3)[Fuc(a1-2)]Gal(b1-4)GlcNAc
# In short: as §1
# [3] = target: Fuc(a1-2)Gal(b1-3)GalNAc(b1-3)Gal
# In short: as §1
# [4] = target: Fuc(a1-2)Gal(b1-3)GalNAc(b1-3)Gal(a1-4)Gal(b1-4)Glc
# In short: as §1
# [5] = target: Fuc(a1-2)Gal(b1-3)GalNAc(b1-3)Gal(b1-4)Glc
# In short: as §1
# [6] = target: Fuc(a1-2)Gal(b1-3)GalNAc(b1-4)[Neu5Ac(a2-3)]Gal(b1-4)Glc
# In short: as §1
# Fuc(a1-2)Gal(b1-3)GlcNAc = target: Fuc(a1-2)Gal(b1-3)GlcNAc
# In short: as §1
# [7] = target: Fuc(a1-2)Gal(b1-3)GlcNAc(b1-2)Man(a1-3)[Fuc(a1-2)Gal(b1-3)GlcNAc(b1-2)Man(a1-6)]Man(b1-4)GlcNAc(b1-4)GlcNAc
# In short: as §1
# [8] = target: Fuc(a1-2)Gal(b1-3)GlcNAc(b1-2)Man(a1-3)[Fuc(a1-2)Gal(b1-3)GlcNAc(b1-2)Man(a1-6)]Man(b1-4)GlcNAc(b1-4)[Fuc(a1-6)]GlcNAc
# In short: as §1
# [9] = target: Fuc(a1-2)Gal(b1-3)GlcNAc(b1-3)Gal(b1-4)Glc
# In short: as §1
# [10] = target: Fuc(a1-2)Gal(b1-3)GlcNAc(b1-3)GalNAc
# In short: as §1
# [11] = target: Fuc(a1-2)Gal(b1-3)GlcNAc(b1-3)[Fuc(a1-2)Gal(b1-3)GlcNAc(b1-6)]GalNAc
# In short: as §1
# [12] = target: Fuc(a1-2)Gal(b1-3)GlcNAc(b1-3)[Fuc(a1-3)[Gal(b1-4)]GlcNAc(b1-6)]Gal(b1-4)Glc
# In short: as §1
# [13] = target: Fuc(a1-2)Gal(b1-3)GlcNAc(b1-3)[Gal(b1-4)GlcNAc(b1-6)]Gal(b1-4)Glc
# In short: as §1
# [14] = target: Fuc(a1-2)Gal(b1-3)GlcNAc(b1-3)[Neu5Ac(a2-6)Gal(b1-4)GlcNAc(b1-6)]Gal(b1-4)Glc
# In short: as §1
# [15] = target: Fuc(a1-2)Gal(b1-3)GlcNAc6S
# In short: as §1
# [16] = target: Fuc(a1-2)Gal(b1-3)[Fuc(a1-4)]GlcNAc
# In short: as §1
# [17] = target: Fuc(a1-2)Gal(b1-3)[Fuc(a1-4)]GlcNAc(b1-2)Man(a1-3)[Fuc(a1-2)Gal(b1-3)[Fuc(a1-4)]GlcNAc(b1-2)Man(a1-3)]Man(b1-4)GlcNAc(b1-4)GlcNAc
# In short: as §1
# [18] = target: Fuc(a1-2)Gal(b1-3)[Fuc(a1-4)]GlcNAc(b1-2)Man(a1-3)[Fuc(a1-2)Gal(b1-3)[Fuc(a1-4)]GlcNAc(b1-2)Man(a1-6)]Man(b1-4)GlcNAc(b1-4)GlcNAc
# In short: as §1
# [19] = target: Fuc(a1-2)Gal(b1-3)[Fuc(a1-4)]GlcNAc(b1-2)Man(a1-3)[Fuc(a1-2)Gal(b1-3)[Fuc(a1-4)]GlcNAc(b1-2)Man(a1-6)]Man(b1-4)GlcNAc(b1-4)[Fuc(a1-6)]GlcNAc(b1-4)[Fuc(a1-6)]GlcNAc
# In short: as §1
# [20] = target: Fuc(a1-2)Gal(b1-3)[Fuc(a1-4)]GlcNAc(b1-3)[Fuc(a1-3)[Gal(b1-4)]GlcNAc(b1-6)]Gal(b1-4)Glc
# In short: as §1
# [21] = target: Fuc(a1-2)Gal(b1-3)[Fuc(a1-4)]GlcNAc(b1-3)[Gal(b1-4)GlcNAc(b1-6)]Gal(b1-4)Glc
# In short: as §1
# [22] = target: Fuc(a1-2)Gal(b1-4)Fuc(a1-3)]GlcNAc(b1-2)Man(a1-3)[Fuc(a1-2)Gal(b1-4)[Fuc(a1-3)]GlcNAc(b1-2)Man(a1-6)]Man(b1-4)GlcNAc(b1-4)GlcNAc
# In short: as §1
# Fuc(a1-2)Gal(b1-4)Glc = target: Fuc(a1-2)Gal(b1-4)Glc
# In short: as §1
# Fuc(a1-2)Gal(b1-4)Glc6S = target: Fuc(a1-2)Gal(b1-4)Glc6S
# In short: as §1
# Fuc(a1-2)Gal(b1-4)GlcNAc = target: Fuc(a1-2)Gal(b1-4)GlcNAc
# In short: as §1
# [23] = target: Fuc(a1-2)Gal(b1-4)GlcNAc(b1-2)Man
# In short: as §1
# [24] = target: Fuc(a1-2)Gal(b1-4)GlcNAc(b1-2)Man(a1-3)[Fuc(a1-2)Gal(b1-4)GlcNAc(b1-2)Man(a1-6)]Man(b1-4)GlcNAc(b1-4)GlcNAc
# In short: as §1
binder,measurement,setting,value
"Nictaba (Nicotiana tabacum), Q94EW1 (protein) MQGQWIAARDLSITWVDNPQYWTWKTVDPNIEVAELRRVAWLDIYGKIETKNLIRKTSYAVYLVFKLTDNPRELERATASLRFVNEVAEGAGIEGTTVFISKKKKLPGELGRFPHLRSDGWLEIKLGEFFNNLGEDGEVEMRLMEINDKTWKSGIIVKGFDIRPN",glycan array binding signal (z-score),Fuc(a1-2)Gal,-0.273
same,glycan array binding signal (z-score),Fuc(a1-2)Gal(b1-3)GalNAc,-0.319
same,glycan array binding signal (z-score),[1],-0.299
same,glycan array binding signal (z-score),[2],-0.307
same,glycan array binding signal (z-score),[3],-0.281
same,glycan array binding signal (z-score),[4],-0.31
same,glycan array binding signal (z-score),[5],-0.254
same,glycan array binding signal (z-score),[6],-0.288
same,glycan array binding signal (z-score),Fuc(a1-2)Gal(b1-3)GlcNAc,-0.277
same,glycan array binding signal (z-score),[7],0.189
same,glycan array binding signal (z-score),[8],-0.242
same,glycan array binding signal (z-score),[9],-0.249
same,glycan array binding signal (z-score),[10],-0.286
same,glycan array binding signal (z-score),[11],-0.378
same,glycan array binding signal (z-score),[12],-0.268
same,glycan array binding signal (z-score),[13],-0.282
same,glycan array binding signal (z-score),[14],-0.329
same,glycan array binding signal (z-score),[15],-0.382
same,glycan array binding signal (z-score),[16],-0.295
same,glycan array binding signal (z-score),[17],-0.321
same,glycan array binding signal (z-score),[18],-0.2
same,glycan array binding signal (z-score),[19],-0.313
same,glycan array binding signal (z-score),[20],-0.318
same,glycan array binding signal (z-score),[21],-0.29
same,glycan array binding signal (z-score),[22],1.79
same,glycan array binding signal (z-score),Fuc(a1-2)Gal(b1-4)Glc,-0.337
same,glycan array binding signal (z-score),Fuc(a1-2)Gal(b1-4)Glc6S,-0.254
same,glycan array binding signal (z-score),Fuc(a1-2)Gal(b1-4)GlcNAc,-0.297
same,glycan array binding signal (z-score),[23],-0.383
same,glycan array binding signal (z-score),[24],2.47

# Reference: the supplement of paper PMC8728848
